1 compound from patent US20060039856A1, “Magnetic resonance with stimulation” (McLean Hospital Corporation, priority 2001, published 2006) can be followed below.

This experiment deals with right and left V1 (primary visual cortex) BOLD signal. The experiment can be described thus: BOLD fMRI of visual cortex during red and blue photic stimulation after oral drug or placebo. The conditions noted are these: 1x4 ROI in right and left V1, mean across all trials, 2.5 mg oral.

Structures are written as SMILES.

On to `C[C@H](N)Cc1ccccc1.C[C@H](N)Cc1ccccc1.O=S(=O)(O)O` [d-amphetamine, d-amphetamine sulfate], for which the “mean BOLD signal change” value came out at 2.04% (blue light (470 nm) 0.12 lux) and 1.24% (red light (660 nm) 0.12 lux).
